Patent US20230365642A1 (MEDICENNA THERAPEUTICS, published 2023)

Key:
[1] = molecular target: T1, IL4R Type-II (IL4Rα chain with IL13Rα1), on cells (UniProt P24394 26-825; P78552 22-427, limits assumed); assay: cell-based or functional assay
T1 sequence (looked up) 1: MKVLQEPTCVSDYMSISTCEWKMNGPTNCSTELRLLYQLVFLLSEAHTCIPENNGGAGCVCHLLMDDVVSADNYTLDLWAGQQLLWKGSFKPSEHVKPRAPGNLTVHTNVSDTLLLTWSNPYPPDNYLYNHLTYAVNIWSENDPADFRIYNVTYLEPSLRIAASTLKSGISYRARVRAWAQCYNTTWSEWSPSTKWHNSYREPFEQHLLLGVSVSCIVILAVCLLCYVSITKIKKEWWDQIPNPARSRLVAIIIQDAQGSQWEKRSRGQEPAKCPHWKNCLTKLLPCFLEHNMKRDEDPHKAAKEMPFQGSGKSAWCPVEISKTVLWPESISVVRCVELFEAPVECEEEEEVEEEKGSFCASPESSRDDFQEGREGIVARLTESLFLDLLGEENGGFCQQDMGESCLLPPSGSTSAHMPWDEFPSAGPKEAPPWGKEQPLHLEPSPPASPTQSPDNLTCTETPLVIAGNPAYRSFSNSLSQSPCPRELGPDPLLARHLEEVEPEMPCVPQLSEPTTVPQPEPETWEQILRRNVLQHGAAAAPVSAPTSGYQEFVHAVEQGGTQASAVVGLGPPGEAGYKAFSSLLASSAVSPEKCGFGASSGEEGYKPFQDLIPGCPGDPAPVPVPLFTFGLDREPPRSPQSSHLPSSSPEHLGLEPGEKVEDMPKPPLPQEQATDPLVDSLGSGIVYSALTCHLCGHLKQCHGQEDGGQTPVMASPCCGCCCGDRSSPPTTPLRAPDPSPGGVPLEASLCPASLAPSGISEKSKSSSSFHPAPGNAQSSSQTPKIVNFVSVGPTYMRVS
T1 sequence (looked up) 2: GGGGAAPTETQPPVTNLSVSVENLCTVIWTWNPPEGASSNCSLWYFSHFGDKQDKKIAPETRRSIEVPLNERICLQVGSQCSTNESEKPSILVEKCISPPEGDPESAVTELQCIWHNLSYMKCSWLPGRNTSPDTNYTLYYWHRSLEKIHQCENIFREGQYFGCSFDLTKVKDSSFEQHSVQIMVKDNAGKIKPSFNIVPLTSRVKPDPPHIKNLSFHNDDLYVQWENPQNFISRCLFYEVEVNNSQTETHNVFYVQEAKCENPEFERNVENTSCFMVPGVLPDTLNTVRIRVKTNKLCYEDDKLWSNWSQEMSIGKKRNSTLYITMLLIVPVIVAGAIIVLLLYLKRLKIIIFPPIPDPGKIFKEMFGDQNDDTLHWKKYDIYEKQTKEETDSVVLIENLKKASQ

[2] = molecular target: T2, high affinity IL-2 receptor (IL-2R) consisting of CD122, CD132 and CD25, on CTLL-2 cells (mouse, UniProt P01590 22-268; P16297 27-539; P34902 23-369); assay: cell-based or functional assay
T2 sequence (looked up) 1: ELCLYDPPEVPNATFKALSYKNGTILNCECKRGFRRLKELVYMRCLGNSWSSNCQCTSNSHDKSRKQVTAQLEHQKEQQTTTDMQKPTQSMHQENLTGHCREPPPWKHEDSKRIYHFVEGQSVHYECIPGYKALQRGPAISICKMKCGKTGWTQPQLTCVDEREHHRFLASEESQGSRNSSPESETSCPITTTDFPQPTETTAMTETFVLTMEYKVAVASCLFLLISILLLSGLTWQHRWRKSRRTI
T2 sequence (looked up) 2: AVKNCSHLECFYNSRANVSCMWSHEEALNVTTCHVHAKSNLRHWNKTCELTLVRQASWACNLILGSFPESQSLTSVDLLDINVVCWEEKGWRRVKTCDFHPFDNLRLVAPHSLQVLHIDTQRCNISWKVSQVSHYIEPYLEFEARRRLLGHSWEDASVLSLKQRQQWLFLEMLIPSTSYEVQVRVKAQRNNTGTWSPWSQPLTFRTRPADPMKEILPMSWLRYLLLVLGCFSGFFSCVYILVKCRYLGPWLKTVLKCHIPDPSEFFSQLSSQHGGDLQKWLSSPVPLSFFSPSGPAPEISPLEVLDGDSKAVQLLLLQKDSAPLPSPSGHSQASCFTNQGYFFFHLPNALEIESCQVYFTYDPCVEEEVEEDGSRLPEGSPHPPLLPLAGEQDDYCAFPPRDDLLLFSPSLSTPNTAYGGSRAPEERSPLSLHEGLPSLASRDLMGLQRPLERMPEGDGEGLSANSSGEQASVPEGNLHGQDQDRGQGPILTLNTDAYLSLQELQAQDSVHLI
T2 sequence (looked up) 3: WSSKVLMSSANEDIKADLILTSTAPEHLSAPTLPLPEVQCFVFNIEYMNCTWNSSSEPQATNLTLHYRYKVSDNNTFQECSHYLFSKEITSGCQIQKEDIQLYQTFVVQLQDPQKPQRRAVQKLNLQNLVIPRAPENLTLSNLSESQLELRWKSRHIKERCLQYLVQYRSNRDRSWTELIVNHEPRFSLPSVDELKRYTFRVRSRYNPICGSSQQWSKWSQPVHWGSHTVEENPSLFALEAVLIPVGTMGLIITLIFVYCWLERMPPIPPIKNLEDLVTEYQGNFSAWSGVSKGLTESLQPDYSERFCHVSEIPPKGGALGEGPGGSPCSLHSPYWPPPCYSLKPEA

[3] = molecular target: T3, IL13Rα2 Protein, Mouse, Recombinant, His Tag (mouse, UniProt O88786 22-334, limits assumed); assay: ELISA, receptor coated on plate, anti-human IgG Fc detection
T3 construct: also called mouse IL13Rα2; mIL13Rα2; not shown: His tag
T3 sequence (looked up): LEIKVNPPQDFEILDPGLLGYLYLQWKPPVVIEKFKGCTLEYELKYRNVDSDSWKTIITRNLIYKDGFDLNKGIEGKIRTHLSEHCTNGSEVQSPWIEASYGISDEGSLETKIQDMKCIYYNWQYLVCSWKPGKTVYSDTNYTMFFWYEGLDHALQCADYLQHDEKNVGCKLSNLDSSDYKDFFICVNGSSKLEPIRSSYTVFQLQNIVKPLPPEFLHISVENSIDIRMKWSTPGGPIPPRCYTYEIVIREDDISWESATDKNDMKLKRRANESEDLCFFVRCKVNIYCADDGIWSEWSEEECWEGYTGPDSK

[4] = molecular target: T4, IL4Rα Protein, Mouse, Recombinant (ECD, His Tag) (aa 1-233, ECD) (mouse, UniProt P16382 26-233); assay: as above
T4 construct: extracellular domain; The stated range 1-233 includes the signal peptide of the expression construct; also called mouse IL4R; mouse IL4Rα; not shown: His tag
T4 sequence (looked up): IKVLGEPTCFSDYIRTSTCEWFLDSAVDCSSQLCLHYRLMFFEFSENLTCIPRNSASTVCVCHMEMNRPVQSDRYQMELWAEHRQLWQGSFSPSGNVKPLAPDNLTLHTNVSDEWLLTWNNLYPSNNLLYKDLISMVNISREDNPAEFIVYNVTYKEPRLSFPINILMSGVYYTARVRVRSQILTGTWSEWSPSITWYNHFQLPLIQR

[5] = molecular target: T5, IL13Rα Protein, Human, Recombinant, His Tag (human IL13Rα1) (human, UniProt P78552 22-343, limits assumed); assay: SPR (Biacore T200), construct captured by its Fc, receptor flown over, multi cycle kinetics
T5 construct: also called hIL13Rα1; IL13Ra1; not shown: His tag
T5 sequence (looked up): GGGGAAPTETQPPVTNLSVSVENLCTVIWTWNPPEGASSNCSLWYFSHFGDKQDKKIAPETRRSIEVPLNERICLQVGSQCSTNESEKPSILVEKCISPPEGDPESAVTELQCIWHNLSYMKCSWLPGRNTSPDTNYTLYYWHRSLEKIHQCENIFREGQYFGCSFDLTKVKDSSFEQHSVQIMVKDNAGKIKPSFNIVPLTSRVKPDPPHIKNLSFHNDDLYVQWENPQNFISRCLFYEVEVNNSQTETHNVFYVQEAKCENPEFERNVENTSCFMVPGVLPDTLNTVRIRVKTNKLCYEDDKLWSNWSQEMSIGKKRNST

[6] = molecular target: T6, IL13Rα2 Protein, Human, Recombinant, His Tag (human, UniProt Q14627 27-343); assay: as above
T6 construct: also called human IL13Rα2; IL13Ra2; not shown: His tag
T6 sequence (looked up): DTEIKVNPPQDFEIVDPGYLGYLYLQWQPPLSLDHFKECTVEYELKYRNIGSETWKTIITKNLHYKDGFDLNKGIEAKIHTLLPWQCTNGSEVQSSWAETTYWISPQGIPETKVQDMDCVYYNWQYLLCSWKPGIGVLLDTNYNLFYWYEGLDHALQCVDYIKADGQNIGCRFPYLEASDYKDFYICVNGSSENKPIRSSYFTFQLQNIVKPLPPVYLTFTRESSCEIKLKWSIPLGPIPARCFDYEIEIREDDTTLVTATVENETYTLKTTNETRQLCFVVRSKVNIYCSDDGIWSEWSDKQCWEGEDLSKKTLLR

B1: MDNA413^L39/Q111-Fc-MDNA413^L39/Q111 (2:1:2) (Fc fusion)
chain: PGPVPPSTAVRALIEELINITQNQKAPLCNGSMVWSINLTAGMYCAALESLINVSGCSAIEKTQDMLSGFCPHKVSAGQFSSLHVRSSKIEVAQFVKDLLFHLRTLFREGQFNGGGGSGGGGSGGGGS[human IgG1 Fc with changes not listed]GGGSGGGGSGGGGSPGPVPPSTAVRALIEELINITQNQKAPLCNGSMVWSINLTAGMYCAALESLINVSGCSAIEKTQDMLSGFCPHKVSAGQFSSLHVRSSKIEVAQFVKDLLFHLRTLFREGQFN
[1]
  IL4 EC50 (nM); IL-4 competitive assay, HEK-Blue IL-4/IL-13 reporter cells: 326 nM
  IL 13 EC50 (nM); IL-13 competitive assay, HEK-Blue IL-4/IL-13 reporter cells: 601 nM

B2: H4FEAA-Fc-MDNA413^L39/Q111 (2:1:2) (Fc fusion)
chain: APTSSSTKKTQLQLEHLLLDLQMILNGINNYKNPKLTRMLTAKFYMPKKATELKHLQCLEEALKPLEEVLNLASSKNFHFTPRDVVSNINVFVLELKGSETTFMCEYADETATIVEFLNRWITFSQSIISTLTGGGGSGGGGSGGGGS[human IgG1 Fc with changes not listed]GGGSGGGGSGGGGSPGPVPPSTAVRALIEELINITQNQKAPLCNGSMVWSINLTAGMYCAALESLINVSGCSAIEKTQDMLSGFCPHKVSAGQFSSLHVRSSKIEVAQFVKDLLFHLRTLFREGQFN
[2]
  CTTL-2 Assay, EC50 (pM): 20900 pM
[1]
  IL 13 EC50 (nM); IL-13 competitive assay, HEK-Blue IL-4/IL-13 reporter cells: 1120 nM

B3: Human recombinant Fc-IL13 (Control) (Fc fusion)
chain: not shown
notes: also called Fc-hIL13; Fc-WT IL13; not shown: Fc tag of the bought protein (Sino Biological 10369-H01H)
[3]
  binding result: binds
[4]
  binding result: no binding
[5]
  Kd: 68 nM
[6]
  Kd: 0.144 nM

B4: Fc-MDNA413 (1:2) (Fc fusion)
chain: [human IgG1 Fc with changes not listed]GGGSGGGGSGGGGSPGPVPPSTAVRALIEELINITQNQKAPLCNGSMVWSINRTAGMYCAALESLINVSGCSAIEKTQDMLSGFCPHKVSAGQFSSLHVRSSKIEVAQFVKDLLFHLRTLFREGQFN
[6]
  Kd: 9.73 nM
